Here are results for 56 variants from the RNAGym collection of RNA variant scans (doi:10.7554/elife.90254).

B1: LINE1-mini (parent)
chain: GGCAGAGCUCAACACAGCGUGGCAAAGUGGCUGUGGCUAGACUGCC

Read counts are not given, so values of variants with three or more changes are uncertain.

Variants of B1 are the subject of the data set. In words: self-cleavage, relative activity (ratio to wild type); higher = more cleavage; in vitro, sequencing; the parent is a self-cleaving ribozyme.
On to GGCAUAGCUCAACACAGCGUGGCAAAGUGGCUGUGGCUAGGCUGUC [G5U A41G C45U], for which the self-cleavage is 0.03.
Turning to GGCAUAGCUCAACACGGCGUAGCAAAGUGGCUGUAUCUAGACCGCC [G5U A16G G21A G35A G36U U43C], the self-cleavage was 0.04.
Regarding GGCAUAGCUCAACACAGCGUGGCCAAGUGGCUGUGGCUAGACUUCC [G5U A24C G44U], the self-cleavage amounted to 0.04.
On to GGCAUAGCUCAUCAGAGCGUGGCAAAGUGGCUGUGGCUAGACUGCU [G5U A12U C15G C46U], for which the self-cleavage was 0.04.
Regarding GGCAUAGCUCAACACUGCGUGGCUAAGUGGCUGUGGCUAGACUGCC [G5U A16U A24U], the self-cleavage came out at 0.06.
As for GGCAUAGCUCUACACAGCGAGGCAAAGUGGCUGUGGCUAGACUGCC [G5U A11U U20A], the self-cleavage was found to be 0.02.
Consider GGCAUAGCUCAACACAGCGUGGCAAAGUGGCUGUGGCUGCACUUCC [G5U A39G G40C G44U], for which the self-cleavage was determined as 0.03.
The value for GGCAUAGCUCAACUCAGCCUGGCAAAGUGGCUGUGGCUAGACUGCC [G5U A14U G19C] was 0.03; that for GGCAUAGCUCAACCAAGCGUGGCAAAGUGGCUGUGGCUAGACUGCC [G5U A14C C15A] was 0.03; that for GGCAUAGAUCAACUCAGCUUGGCAAAGUGGCUGUGGCUAGACUGCC [G5U C8A A14U G19U] was 0.44.
Turning to GGCAUAGCUCGACAAAGCGGGGCAAAGUGGCUGUGGCUAAACUGCC [G5U A11G C15A U20G G40A], the self-cleavage is 0.03.
In the case of GGCAUAGCUCAACACAGCGUGGCAAGGUGGCUGUGGCUUGACUGCG [G5U A26G A39U C46G], the self-cleavage was found to be 0.
As for GGCAUAGCUCAACGCAGGGUGGCGAAGUGGCCGUGGCUAGACUGCC [G5U A14G C18G A24G U32C], the self-cleavage was 0.
Consider GGCAUAGCUCUACACAGCGUGGCAAACUGGCUGUGGCUAGACUGCC [G5U A11U G27C], for which the self-cleavage turned out to be 0.02.
The value for GGCAUAGAUCAACACAGCGUGGCACAGUGGCUGUGGCUAGACUGCC [G5U C8A A25C] was 0.25; that for GGCAUAGCUCAACACGGCGCAGCAAAGUGGCUGUGGCUUGACUGCC [G5U A16G U20C G21A A39U] was 0.01.
In the case of GGCAUAGCUCAGCACAGCGUGGCAAAGUGGCCGUGGCUACACUGCU [G5U A12G U32C G40C C46U], the self-cleavage is 0.06.
For GGCAUAGCUCAACACGUCGCGGCAAAGUGGCUGUGGCUAGACUACC [G5U A16G G17U U20C G44A], the self-cleavage was found to be 0.02.
Turning to GGCAUAGCUCAACGCAGCGUGGCAAAGUGGCUGUGGCUAGUCUGCC [G5U A14G A41U], the self-cleavage was 0.09.
For the variant GGCAUAGCUCAACUCAGCGUGCCAAAGUGGCUGUGGCUAGAAUGCC [G5U A14U G22C C42A], the self-cleavage came out at 0.03.
The value for GGCAUAGCUCAACACAGCGUGGCAUACUGGCUGUGGCUAGAUUGCC [G5U A25U G27C C42U] was 0.01.
Turning to GGCAUAGCUCACAACAGCGUGGCAAAGUGGCUGUGGCUAGACUCCC [G5U A12C C13A G44C], the self-cleavage is 0.
The value for GGCAUAGCUCAACACAGCGUGGCAAGGUGGUUGUUGCUAGACUGCC [G5U A26G C31U G35U] was 0.02; that for GGCAUAGCUCAUUACAGCGUGGCAAAGUGGCUUUGGCUAGACUGCC [G5U A12U C13U G33U] was 0.1.
Turning to GGCAUAGAUCACCACAGCGUUGGAAACUCGCUGUGGCUAGACUGCA [G5U C8A A12C G21U C23G G27C G29C C46A], the self-cleavage turned out to be 0.01.
GGCAUAGCUCAACACAGCGUGGCAAAGUGGCUGUGGCUAGUCUGGC [G5U A41U C45G]: the self-cleavage was 0.03.
Consider GGCAUAGCUCUACACAGCGUGGCAAAGUGGCUGUGGCUAGACUGCA [G5U A11U C46A], for which the self-cleavage was 0.01.
For GGCAUAGCUCAACACUGCGUGGCAAAGUGGCGGUGGCUAUACUGCC [G5U A16U U32G G40U], the self-cleavage is 0.12.
The value for GGCAUAGCUCAACACAGCGUGGCAACGUGGCUGUGGCUAGAAUGCC [G5U A26C C42A] was 0.76; that for GGCAUAGCUCAACACAGCGUGGCAACGUUGCUGUGGCUAGACUGCC [G5U A26C G29U] was 0.04.
Turning to GGCAUAGCUCAUCACAGCGUCGCAAAGUGGCUGUGGCUUGACUGCC [G5U A12U G21C A39U], the self-cleavage is 0.02.
As to GGCAUAGCUCAACACAGCGUGGCAAGGUGGCUGUGGCUUGUCUGCC [G5U A26G A39U A41U], the self-cleavage amounted to 0.09.
Take GGCAUAGCUCAACGCAGCGUGGCAAAGUGGCUGUGGCCAGGCUGCC [G5U A14G U38C A41G]: the self-cleavage was found to be 0.05.
Turning to GGCAUAGCUCGACACAGCGUGGCAAAGUGGCUGUGGCUACACUGCC [G5U A11G G40C], the self-cleavage worked out at 0.03.
As to GGCAUAGCUCGACACAGCGUGGAAAAGUGGCUGUGGCUAGAUUGCC [G5U A11G C23A C42U], the self-cleavage was 0.05.
The value for GGCAUAGCUCACCACAGGGUGCCACAGUGGCUGUGGCUAGACUGCC [G5U A12C C18G G22C A25C] was 0.01; that for GGCAUAGCUCAUCACAGCGUGGCCAAGUGGCUGUGGCUAGACUGCC [G5U A12U A24C] was 0.03.
Turning to GGCAUAGCUCAACACAGCGUGGCAAUGAGGCUGUGGCUAGACUGCU [G5U A26U U28A C46U], the self-cleavage amounted to 0.
For the variant GGCAUAGCUCAACACAGCGUGGCAAAGUGGCUGUGGCUUGACUUCC [G5U A39U G44U], the self-cleavage was 0.08.
Turning to GGCAUAGCUCAACCCAGCGUGGCAAAGUGGCUGUUGCUAGACUGCC [G5U A14C G35U], the self-cleavage worked out at 0.3.
On to GGCAUAGCUCAACCCAGUGUGGUAAAGUGGCUGUGGCUAGACUGCC [G5U A14C C18U C23U], for which the self-cleavage was 0.01.
GGCAUAGCUCAACACAGCGUGGCGAAGUGGCUGUAGCUGGACUGCC [G5U A24G G35A A39G]: the self-cleavage stood at 0.1.
The value for GGCAUAGCUCAACACAGCGUGGCUAAGUGGCUGUUGCUAGACUGGG [G5U A24U G35U C45G C46G] was 0.02.
Consider GGCAUAGCUCAACACAGCGUGGCGAAUUGUCUGUGGCUAGACUGCC [G5U A24G G27U G30U], for which the self-cleavage is 0.27.
For GGCAUAGCUCAGCAAAGCGUGGCAAAGAGGCUGUGUCUAGACUGCC [G5U A12G C15A U28A G36U], the self-cleavage came out at 0.02.
As to GGCAUAGCUCAACACAGCGUGGCAUAGUGGCUUUGGCUAGAAUGCC [G5U A25U G33U C42A], the self-cleavage came to 0.07.
Regarding GGCAUAGCUCAACACAGCGUGGCAUAGCGGCUGUCGCUAGACUGCC [G5U A25U U28C G35C], the self-cleavage turned out to be 0.02.
With GGCAUAGCUCAACUAAACGUUGCACAUUGGCUGUGGCAAGACUGCC [G5U A14U C15A G17A G21U A25C G27U U38A], the self-cleavage worked out at 0.03.
Consider GGCAUAGCUCAACACAGCGUGGCAUAGUGGCUUUAGCUACACUGCC [G5U A25U G33U G35A G40C], for which the self-cleavage was 0.02.
As to GGCAUAGCUCAACACAGCGUGGCAAGGUGGCUGUGGCUGGACUGCC [G5U A26G A39G], the self-cleavage was 0.18.
As to GGCAUAGCUCAGCAGUGCGUGCCAAAGUGGCUGUGGCUAGACUGCC [G5U A12G C15G A16U G22C], the self-cleavage amounted to 0.05.
The value for GGCAUAGCUCAACACCGCGUGGCAAAGUGGCUGUGGCUAAACUGCC [G5U A16C G40A] was 0.07; that for GGCAUAGCUCAACACUGCGUGGCAAUGUGGCUGUGGCUAGACUGCC [G5U A16U A26U] was 0.04.
As to GGCAUUGCUCAACACAGCGAGGCAAAGUGGGUGUGGCUAGACUACC [G5U A6U U20A C31G G44A], the self-cleavage turned out to be 0.03.
Regarding GGCAUAGCUCAACACAGCGUGGCAAAGUGGCUGUGGCUAGUCUUCC [G5U A41U G44U], the self-cleavage was 0.01.
GGCAUAGCUCAACUCCGCGUGGCACAGUGGAUGUGGCUAGACUGCC [G5U A14U A16C A25C C31A]: the self-cleavage turned out to be 0.
